Measurements reported in publication PMC4336329 (PLoS ONE, 2015).
In all, about 310,000 compounds went through this assay and about 2,200 (0.71%) showed an effect of 50% or more. Effects have a minus sign here. The list shows a part of the results.

target: human ether-à-go-go-related gene (hERG) potassium channel (human, UniProt Q12809); assay: primary screen, population patch clamp on CHO cells stably expressing hERG
Sequence (Q12809 whole entry, looked up): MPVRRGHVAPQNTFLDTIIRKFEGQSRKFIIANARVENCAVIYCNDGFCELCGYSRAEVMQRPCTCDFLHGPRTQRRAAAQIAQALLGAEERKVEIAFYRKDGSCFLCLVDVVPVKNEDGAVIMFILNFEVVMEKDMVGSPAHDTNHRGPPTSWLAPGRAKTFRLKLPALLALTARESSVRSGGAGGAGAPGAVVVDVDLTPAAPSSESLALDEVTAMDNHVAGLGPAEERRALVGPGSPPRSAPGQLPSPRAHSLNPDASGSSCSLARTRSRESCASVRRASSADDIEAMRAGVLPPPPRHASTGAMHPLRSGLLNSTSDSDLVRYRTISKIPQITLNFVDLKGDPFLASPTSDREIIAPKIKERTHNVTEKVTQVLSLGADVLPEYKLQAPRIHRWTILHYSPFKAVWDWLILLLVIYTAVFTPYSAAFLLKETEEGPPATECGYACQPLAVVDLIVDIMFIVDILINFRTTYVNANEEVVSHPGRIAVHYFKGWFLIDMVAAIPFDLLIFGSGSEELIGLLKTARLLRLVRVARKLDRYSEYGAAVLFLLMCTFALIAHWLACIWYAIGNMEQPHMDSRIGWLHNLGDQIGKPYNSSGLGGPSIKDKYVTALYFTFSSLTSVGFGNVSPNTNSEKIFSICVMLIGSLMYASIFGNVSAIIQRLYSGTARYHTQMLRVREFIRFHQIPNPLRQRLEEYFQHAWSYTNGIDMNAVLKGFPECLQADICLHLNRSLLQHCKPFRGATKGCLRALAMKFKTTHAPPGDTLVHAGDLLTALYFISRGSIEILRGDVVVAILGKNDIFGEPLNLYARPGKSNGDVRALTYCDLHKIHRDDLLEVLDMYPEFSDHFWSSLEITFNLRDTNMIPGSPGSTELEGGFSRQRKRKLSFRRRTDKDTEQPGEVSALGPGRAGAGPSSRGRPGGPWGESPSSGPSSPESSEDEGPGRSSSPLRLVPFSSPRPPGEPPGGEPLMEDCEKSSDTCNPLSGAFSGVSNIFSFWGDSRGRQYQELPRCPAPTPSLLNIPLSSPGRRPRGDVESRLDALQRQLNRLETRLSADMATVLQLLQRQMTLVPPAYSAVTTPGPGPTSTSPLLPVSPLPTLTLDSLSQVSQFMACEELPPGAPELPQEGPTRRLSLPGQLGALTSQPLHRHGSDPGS

| Structure (SMILES) | hERG current change (%, negative = inhibition) at 1uM [%] |
| --- | --- |
| O=S(=O)(c1ccccc1)N1CCN(c2ncccn2)CC1 | -0.261 |
| O=C(NCc1ccccc1)N1CCC(CO)(CCc2ccccc2)CC1 | 4.29 |
| COc1ccccc1NS(=O)(=O)c1cccc(C(=O)NN=C2CCCC2)c1 | 4.64 |
| COc1ccc(N=c2scc(C)n2CCCN2CCCC2=O)cc1 | 9.22 |
| CC(C)(C)NC(=O)COC(=O)c1ccccc1C(=O)c1ccccc1 | 16.8 |
| Cn1cc(CN2CCCC(CO)(Cc3ccccc3)C2)cn1 (stereo not drawn) | 3.23 |
| Cc1cc(NC(=O)NC(=O)c2ccc(F)cc2F)n[nH]1 | 13.8 |
| O=C(Cn1ncnn1)OCc1ccccc1Cl | 11.3 |
| CCOc1ccc(S(=O)(=O)N2CCC(C(=O)N3CCCC3)CC2)cc1C | 14 |
| O=C(COC(=O)c1cccc(C(F)(F)F)c1)NCc1ccccc1 | 7.71 |
| CN(C)C1=NC[C@H](Cc2ccccc2)N1CCCCc1ccccc1 | -42.2 |
| Cc1ccc(N2CSC3=C(C#N)C(c4cccs4)CC(=O)N3C2)cc1 (stereo not drawn) | 9.65 |
| COc1cc2c3c(c1)C(C)=CC(C)(C)N3C(=O)C2=O | 8.81 |
| CCOC(=O)C1=C(C)NC2=C(C(=O)CC(C)(C)C2)C1c1ccc2c(c1)CCCN2C (stereo not drawn) | 2.35 |
| O=C(C1CC1)N1CCN(C(c2ccccc2)c2ccccc2)CC1 | 14.9 |
| CCN1C(=O)c2cccc3c(S(=O)(=O)N(C(=O)c4cccnc4)c4ccc(OC)cc4)ccc1c23 | 9.14 |
| Cc1nc(N2CCN(c3ccccc3)CC2)[nH]c(=O)c1CCC(C)C | 14.2 |
| CCCNC(=S)N1CCC(C(=O)c2ccc3c(c2)OCCO3)CC1 | 6.67 |
| CCOC(=O)c1sc(NC(=O)CSc2nc(C)cc(C(F)(F)F)n2)c(C#N)c1C | 2.77 |
| Cc1ccc(NC(=O)Cn2c(CCC(=O)O)ccc2-c2cccs2)cc1 | -4.07 |
| CCOc1ccccc1NS(=O)(=O)N(C)C | -5.77 |
| CC(=O)c1cccc(NC(=O)CSc2ncc(C(=O)Nc3ccccc3)c(=O)n2C)c1 | -6.55 |
| CN(C)c1ccc2c3c(ccc(N(C)C)c13)COC2 | -3.29 |

| Structure (SMILES) | hERG current change (%, negative = inhibition) at 1uM [%] |
| --- | --- |
| COc1cc(/C=N/NC(=O)CSCc2ccc([N+](=O)[O-])cc2)cc(OC)c1OC | 1.15 |
| C=CCNC(=O)c1ccc2c3n(nc2c1)-c1ccccc1CO3 | -10 |
| CCOC(=O)c1nc2nc(C)cc(=O)n2[nH]1 | 7.02 |
| O=C(Nc1nccs1)c1ccc(Cl)nc1 | 15.1 |
| NC(=O)C1CCN(Cc2nc3cc(C(F)(F)F)ccc3c(=O)[nH]2)CC1 | 10.2 |
| O=C1CC(SCc2nc3ccccc3[nH]2)C(=O)N1c1cccc(F)c1 (stereo not drawn) | 9.7 |
| COc1ccc(-c2cn(/N=C/c3ccc(Cl)cc3Cl)c(N)n2)cc1 | 5.2 |
| N#Cc1nc(Cc2ccccc2)oc1N1CCC(C(N)=O)CC1 | 1.5 |
| CC1=C(C(=O)Nc2ccccc2F)C(c2ccsc2)C2=C(CC(C)(C)CC2=O)N1 (stereo not drawn) | 1.33 |
| N#Cc1cn(CC(=O)NCc2cccnc2)c2ccccc12 | 1.54 |
| N#C/C(=C\c1cccnc1)C(=O)Nc1cccc(Cl)c1 | 4.85 |
| COc1ccccc1CN(Cc1ccco1)S(=O)(=O)c1ccc(-n2cnnn2)c(OC)c1 | 15 |
| Cc1ccc2c(C)c(C(=O)N(C)CCC3CCCCO3)oc2c1C (stereo not drawn) | 6.25 |
| COc1ccc2[nH]c(=O)c(CN(C(=O)c3cccnc3)c3ccc(C)cc3)cc2c1 | 4.82 |
| Cc1cc(C)nc(N2CCCC(C(=O)Nc3ccc4c(c3)OCO4)C2)n1 (stereo not drawn) | 15.9 |
| O=C(CSc1nnc(-c2ccncc2)o1)NC1CCCCC1 | 1.09 |
| COc1ccc2c(c1)CCc1c(C(=O)N3CCCc4ccccc43)noc1-2 | 7.61 |
| CCOc1ccc(-c2c(C(=O)N/N=C/c3ccc(C)cc3)nnn2-c2nonc2N)cc1 | 5.28 |
| C/C(=N\NC(=O)Nc1ccccc1)c1ccccc1 | 7.76 |
| Cc1c([N+](=O)[O-])c([N+](=O)[O-])nn1CC(=O)N1CCOCC1 | 17.5 |
| CCC1CCC2(CC1)NC(=O)N(CC(=O)Nc1ccc(OC)c(Cl)c1)C2=O (stereo not drawn) | 9.92 |
| CSc1nsc(SCC(=O)Nc2ccc(OC(C)=O)cc2)n1 | 9.38 |
| c1ccc2c(CSc3nnc(-c4ccncc4)o3)cccc2c1 | 4.85 |

| Structure (SMILES) | hERG current change (%, negative = inhibition) at 1uM [%] |
| --- | --- |
| CCc1ccc(/C=C(\C)C(=O)c2c(C)cc(C)[nH]c2=O)cc1 | 7.16 |
| N#C/C(=C\Nc1ccc2c(c1)OCCO2)c1nc(-c2ccccc2)cs1 | 15.3 |
| CCn1c(SCC(=O)Nc2nc(C)cs2)nnc1-c1cccnc1 | 5.88 |
| CCNC(=O)CN(c1ccccc1OC)S(=O)(=O)c1cccs1 | 4.09 |
| CCOc1ccccc1NC1c2ccccc2C(=O)N1Cc1ccco1 (stereo not drawn) | 7.42 |
| CN(C)S(=O)(=O)c1ccc(C(=O)OCC(=O)NCc2ccco2)cc1 | 13.1 |
| CC1CCN(S(=O)(=O)N2CCCC(C(=O)NCc3ccc(F)cc3)C2)CC1 (stereo not drawn) | 11.9 |
| CCc1cc2c(=O)n(-c3ccccc3)c(SCC(=O)O)nc2s1 | 17 |
| CC(=NCCN1CCN(C(C)=C2C(=O)c3ccccc3C2=O)CC1)C1=C(O)CC(C)(C)CC1=O | -18.1 |
| CC(=O)Nc1ccc(S(=O)(=O)Nc2nc3ccccc3nc2N2CCCCCC2)cc1 | 10.3 |
| Cc1ccc(S(=O)(=O)N(Cc2n[nH]c(=S)n2-c2ccccc2)c2cccc(Cl)c2)cc1 | 14 |
| CC(NCc1ccco1)C(=O)N1CCc2ccccc2C1.Cl (stereo not drawn) | 14.5 |
| C=CCOC(=O)C1=C(C)Nc2nc3ccccc3n2C1c1ccncc1 (stereo not drawn) | 9.94 |
| O=C(NCc1ccncc1)/C(=N/O)c1ccccc1 | 18.6 |
| COc1ccc(/C=N/NC(=O)c2cccc(OC(F)(F)C(F)F)c2)c(OC)c1OC | 7.79 |
| Cc1ccc(OCCC(=O)OCC(=O)NCc2ccccc2)cc1 | 5.04 |
| Cc1ccc(C(=O)Cn2c(C(=O)O)cc3ccccc32)cc1 | 14.1 |
| O=[N+]([O-])c1cc(Cl)c(O)c(-[n+]2c(-c3ccccc3)cc(-c3ccccc3)cc2-c2ccccc2)c1.[O-][Cl+3]([O-])([O-])[O-] | 10.6 |
| CCOC(=O)n1c(=O)n(Cc2ccc(OC)cc2)c2ccccc21 | 11.7 |
| Cc1cc(OCC(O)CN2CCCC2)ccc1C(C)C.Cl (stereo not drawn) | 6.93 |
| Cc1cc(/C=C2/C(=O)NC(=O)N(Cc3ccco3)C2=O)c(C)n1-c1ccccc1 | 8.05 |
| CCOC(=O)/C(C#N)=C/c1ccc(OC)c(OC)c1 | 8.32 |
| C[C@H]1CN=C(Nc2ccccc2)N1CCC1CCCCC1 | -11.8 |

| Structure (SMILES) | hERG current change (%, negative = inhibition) at 1uM [%] |
| --- | --- |
| O=C(Nc1cc(Sc2ccccn2)cc([N+](=O)[O-])c1)c1cccc(F)c1 | 16.5 |
| O=c1cc(C(F)(F)F)c2sc(N3CCCCC3)nc2[nH]1 | 14.9 |
| CCCNC(=O)c1onc(CSc2ccncc2)c1C(=O)NCCC | 7.34 |
| CCOC(=O)c1c(C)noc1-c1ccc(Br)o1 | 0.722 |
| CC(=O)c1ccc(NC(=O)CO/N=C(\C)c2cccs2)cc1 | 7.1 |
| CN(CC(=O)Nc1ccc(F)cc1)C(=O)COC(=O)c1ccccc1 | -0.934 |
| CC(C)CN(C(=O)COC(=O)c1cccc2ccccc12)c1c(N)n(Cc2ccccc2)c(=O)[nH]c1=O | 9.65 |
| CCCC(=O)OCC(=O)NCc1ccc(Cl)cc1 | 9.37 |
| Cc1ccc(C(=O)Nc2cccc(C(=O)N3CCOCC3)c2)cc1 | 3.75 |
| COc1cc(/C=N/O)ccc1OCc1ccc(Cl)cc1 | 11 |
| CCN(CC)S(=O)(=O)c1ccc(NC(=O)CSc2nnc(-c3cccc(OC)c3)n2C)cc1 | -0.303 |
| CCCOP(=O)(OCCC)C(NC(=O)C(C)(C)C)c1ccccc1 (stereo not drawn) | 8.12 |
| O=c1[nH]c(SCc2ccc(F)cc2Cl)nc2ccccc12 | 15.1 |
| COc1ccc(/C=C2\N=C(c3c(-c4ccccc4)noc3C)OC2=O)cc1OC | 5.96 |
| Cc1ccc(NC(=O)CSc2nnc(-c3cccnc3)n2CCN2CCCCC2)cc1 | -53.7 |
| COc1cc(C(=O)Nc2ccc(O)cc2C(=O)O)ccc1OC(C)=O | -6.62 |
| CCOC(=O)CC(=O)CSc1ccc2nnc(-c3ccccc3)n2n1 | -40.9 |
| Cc1cc(C)nc(CCNC(=O)c2cc(COc3ccccc3)on2)n1 | 11 |
| Cc1ccc(C(=O)COC(=O)CNC(=O)c2cccs2)cc1 | 3.85 |
| COc1ccc(S(=O)(=O)Nc2cc(Cl)ccc2OC)cc1 | 1.63 |
| Cc1nc2ccc([N+](=O)[O-])cc2c(=O)n1Cc1cccc(F)c1 | 2.47 |
